# Measured values as given in the BET-seq Pho4 binding data (Le et al. 2018).
# The list shows a part of the results. Values were computed here from the reads of four pooled replicates and scatter widely.
# Biological target: T1, Pho4 (S. cerevisiae) (UniProt P07270)
# T1 sequence: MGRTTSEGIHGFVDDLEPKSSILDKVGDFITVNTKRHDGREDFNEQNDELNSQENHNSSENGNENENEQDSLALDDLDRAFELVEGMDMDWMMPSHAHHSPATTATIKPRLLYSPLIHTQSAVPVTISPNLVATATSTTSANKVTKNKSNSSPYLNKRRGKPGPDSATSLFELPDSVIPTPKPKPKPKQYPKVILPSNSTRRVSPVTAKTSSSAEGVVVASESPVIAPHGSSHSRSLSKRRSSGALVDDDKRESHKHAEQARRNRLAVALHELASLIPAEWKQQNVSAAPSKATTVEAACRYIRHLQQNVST
# Assay: relative binding free energy (BET-seq); higher = weaker binding
# Conditions: reference: library average
row,Sequence,relative binding free energy [kcal/mol]
1,TAGTTCACGTGGCGGT,0.23
2,GCTTGCACGTGGGGTT,-0.15
3,AAAGTCACGTGTCGGT,0.11
4,ACGGGCACGTGCGTGT,-0.33
5,TGTTTCACGTGGGTAG,0.26
6,GTTGACACGTGGACTG,0
7,TGGAGCACGTGCGTCT,-0.03
8,CCTTGCACGTGGGTGT,-0.09
9,CTGGGCACGTGGCGTG,-0.14
10,ATGGACACGTGTTGAT,0.1
11,GAGTTCACGTGGTCTA,0.35
12,ATATACACGTGATATT,0.12
13,AGGGGCACGTGGGACG,-0.23
14,TTTTTCACGTGGATCA,0.4
15,TTGTGCACGTGATGGG,0.12
16,GGTTACACGTGTGTGG,0.25
17,GGTAGCACGTGGTTCG,-0.16
18,ATAATCACGTGTAGTT,0.14
19,CGAGTCACGTGCAGGT,0.16
20,TGTAGCACGTGGTCTT,-0.11
21,TTAGTCACGTGGAACG,0.23
22,GTGGGCACGTGCTGTT,-0.05
23,TCTTGCACGTGGGCGG,-0.11

row,Sequence,relative binding free energy [kcal/mol]
1,GGCAACACGTGTTTTG,0.01
2,AGTTGCACGTGGCTTA,-0.12
3,TAAGTCACGTGTGGGG,0.08
4,AGGCGCACGTGACGTG,0
5,AAGGACACGTGAGGTG,0.26
6,CATGGCACGTGGAGAG,-0.06
7,TTGAACACGTGATTTT,0.21
8,TATCACACGTGTGTGA,0.16
9,TAGGTCACGTGACGGG,0.19
10,CAACGCACGTGTGGTG,-0.02
11,GGAGCCACGTGAGGGT,0.05
12,ATTCACACGTGGTTGT,-0.06
13,TTTAGCACGTGTTGTC,-0.28
14,GCTGACACGTGAGGTT,0.31
15,CTAGTCACGTGAAGTG,0.27
16,GTGCACACGTGGGGTG,-0.15
17,CGAGTCACGTGTGTTT,0.15
18,CAGTGCACGTGGGCTT,-0.1
19,TTTTTCACGTGAGCGC,0.44
20,ATTGTCACGTGTAAAC,0.24
21,TGTGGCACGTGCACGG,-0.18
22,TAATGCACGTGATGTA,-0.05
23,TGAGACACGTGTGTCT,0.06

row,Sequence,relative binding free energy [kcal/mol]
1,TGCATCACGTGGGTGC,0.06
2,GTGGCCACGTGGGATT,-0.04
3,AAGGCCACGTGATTTG,0.27
4,CGTGACACGTGGGCGA,-0.08
5,CTGGACACGTGTGTGT,0.09
6,TTGGGCACGTGGGACC,-0.13
7,TCATTCACGTGGAGAT,0.29
8,GAATGCACGTGCGTGG,-0.03
9,CGGTTCACGTGATTGT,0.32
10,GGGGTCACGTGGAGTG,0.04
11,TTGTACACGTGCTGTT,0.01
12,AGTAGCACGTGATTAG,0.13
13,ACGTGCACGTGCGTTG,-0.06
14,TTATACACGTGTTTGT,0.05
15,GCTTGCACGTGTTTTA,0.08
16,TGGATCACGTGCTGTT,0.05
17,GGAGCCACGTGGTAGG,-0.18
18,TATGGCACGTGTCGTT,-0.18
19,TAGCACACGTGGGGGT,-0.12
20,CGTTTCACGTGACGTT,0.4
21,CTGATCACGTGTTAGT,0.12
22,GTTGGCACGTGTCGGC,0.03
23,CGAATCACGTGTGGGT,0.15

row,Sequence,relative binding free energy [kcal/mol]
1,AGGTGCACGTGCTATT,-0.14
2,TGATGCACGTGAGAGA,0.21
3,CTTGTCACGTGTCTGT,-0.1
4,GTTATCACGTGGTGTA,0.08
5,TGGGGCACGTGCGTAG,-0.18
6,CGAGGCACGTGGAGAT,-0.04
7,GGATGCACGTGCAGGG,-0.1
8,GAATTCACGTGTTTGA,0.3
9,ACAGGCACGTGTGCGG,-0.22
10,TAGGGCACGTGTGTCC,-0.04
11,TTTATCACGTGCGAGT,0.09
12,TAGATCACGTGATAGT,0.28
13,GGTGCCACGTGGAGGT,-0.07
14,CGTTTCACGTGTTACT,0.19
15,ACATGCACGTGGTTTG,-0.12
16,TTAGGCACGTGTGACA,-0.04
17,GTTAACACGTGATTGG,0.09
18,AAGCGCACGTGGAGGT,-0.02
19,GGAGGCACGTGATAGT,0.04
20,GGATGCACGTGGGCAT,-0.05
21,TAATTCACGTGAAAGT,0.36
22,TGGGCCACGTGTTCGT,-0.12
23,TGGATCACGTGGGTGG,0.08

row,Sequence,relative binding free energy [kcal/mol]
1,GTGTGCACGTGAGTTC,0.08
2,AAATGCACGTGTTTAG,0.12
3,CGCAACACGTGTGTGG,0.06
4,TATTGCACGTGGGCTA,-0.08
5,CGTAGCACGTGTGATT,-0.05
6,TAAGGCACGTGCCGGT,-0.1
7,GAGGTCACGTGTGACG,0.27
8,GCCATCACGTGAGGGG,0.27
9,ATAGTCACGTGAGTCA,0.34
10,ATTGTCACGTGCATAG,0
11,GGGAACACGTGGGCAT,-0.01
12,CTGTTCACGTGCTGTT,0.21
13,GAGTGCACGTGTAGTT,0.19
14,AGCGTCACGTGGCATG,0.02
15,AATGGCACGTGCGGGT,-0.11
16,GTTGACACGTGGGTTT,-0.06
17,TGTAACACGTGTTGAA,0.07
18,TGGATCACGTGAGGCT,0.37
19,TTGTTCACGTGCGGTG,0.24
20,TTGATCACGTGTCTGG,0.18
21,GTCGTCACGTGATAAT,0.34
22,ATATACACGTGCGTGG,-0.01
23,GCGAGCACGTGGGGGA,-0.28
